{
  "source": "paper PMC9911399",
  "about": "“Two distinct binding modes provide the RNA-binding protein RbFox with extraordinary sequence specificity”",
  "binders": {"B1": {"name": "CACUGAC (DNA:RNA)", "RNA": "GGGAGACCGGAAUUCAGAUUGUCCCACUGACUUAAAUCCCGUCGUAGCCACCA", "DNA 1": "CAATCTGAATTCCGGTCTCCC", "DNA 2": "TGGTGGCTACGACGGGATT"}, "B2": {"name": "GAAAAAU (DNA:RNA)", "RNA": "B1 RNA with C25G, C27A, U28A, G29A, C31U", "DNA 1": "CAATCTGAATTCCGGTCTCCC", "DNA 2": "TGGTGGCTACGACGGGATT"}, "B3": {"name": "GCCUGAA (DNA:RNA)", "RNA": "B1 RNA with C25G, A26C, C31A", "DNA 1": "CAATCTGAATTCCGGTCTCCC", "DNA 2": "TGGTGGCTACGACGGGATT"}, "B4": {"name": "CAUGCGA (DNA:RNA)", "RNA": "B1 RNA with C27U, U28G, G29C, A30G, C31A", "DNA 1": "CAATCTGAATTCCGGTCTCCC", "DNA 2": "TGGTGGCTACGACGGGATT"}, "B5": {"name": "UAGGGGU (DNA:RNA)", "RNA": "B1 RNA with C25U, C27G, U28G, A30G, C31U", "DNA 1": "CAATCTGAATTCCGGTCTCCC", "DNA 2": "TGGTGGCTACGACGGGATT"}, "B6": {"name": "AACUACC (DNA:RNA)", "RNA": "B1 RNA with C25A, G29A, A30C", "DNA 1": "CAATCTGAATTCCGGTCTCCC", "DNA 2": "TGGTGGCTACGACGGGATT"}, "B7": {"name": "UGAGUGG (DNA:RNA)", "RNA": "GGGAGACCGGAAUUCAGAUUGUCCUGAGUGGUUAAAUCCCGUCGUAGCCACCA", "DNA 1": "CAATCTGAATTCCGGTCTCCC", "DNA 2": "TGGTGGCTACGACGGGATT"}, "B8": {"name": "CAGUUAC (DNA:RNA)", "RNA": "B1 RNA with C27G, G29U", "DNA 1": "CAATCTGAATTCCGGTCTCCC", "DNA 2": "TGGTGGCTACGACGGGATT"}, "B9": {"name": "GGGGUAA (DNA:RNA)", "RNA": "B7 RNA with U25G, A27G, G30A, G31A", "DNA 1": "CAATCTGAATTCCGGTCTCCC", "DNA 2": "TGGTGGCTACGACGGGATT"}, "B10": {"name": "CGCCUGU (DNA:RNA)", "RNA": "B7 RNA with U25C, A27C, G28C, G31U", "DNA 1": "CAATCTGAATTCCGGTCTCCC", "DNA 2": "TGGTGGCTACGACGGGATT"}, "B11": {"name": "UUACUGA (DNA:RNA)", "RNA": "B7 RNA with G26U, G28C, G31A", "DNA 1": "CAATCTGAATTCCGGTCTCCC", "DNA 2": "TGGTGGCTACGACGGGATT"}, "B12": {"name": "GCGCCGA (DNA:RNA)", "RNA": "B7 RNA with U25G, G26C, A27G, G28C, U29C, G31A", "DNA 1": "CAATCTGAATTCCGGTCTCCC", "DNA 2": "TGGTGGCTACGACGGGATT"}, "B13": {"name": "CUACAGU (DNA:RNA)", "RNA": "B7 RNA with U25C, G26U, G28C, U29A, G31U", "DNA 1": "CAATCTGAATTCCGGTCTCCC", "DNA 2": "TGGTGGCTACGACGGGATT"}, "B14": {"name": "GUGGCCA (DNA:RNA)", "RNA": "B7 RNA with U25G, G26U, A27G, U29C, G30C, G31A", "DNA 1": "CAATCTGAATTCCGGTCTCCC", "DNA 2": "TGGTGGCTACGACGGGATT"}, "B15": {"name": "AGGUCCA (DNA:RNA)", "RNA": "B1 RNA with C25A, A26G, C27G, G29C, A30C, C31A", "DNA 1": "CAATCTGAATTCCGGTCTCCC", "DNA 2": "TGGTGGCTACGACGGGATT"}, "B16": {"name": "CCGUGGA (DNA:RNA)", "RNA": "B1 RNA with A26C, C27G, A30G, C31A", "DNA 1": "CAATCTGAATTCCGGTCTCCC", "DNA 2": "TGGTGGCTACGACGGGATT"}, "B17": {"name": "GCGAUGG (DNA:RNA)", "RNA": "B7 RNA with U25G, G26C, A27G, G28A", "DNA 1": "CAATCTGAATTCCGGTCTCCC", "DNA 2": "TGGTGGCTACGACGGGATT"}, "B18": {"name": "AGAAGCG (DNA:RNA)", "RNA": "B7 RNA with U25A, G28A, U29G, G30C", "DNA 1": "CAATCTGAATTCCGGTCTCCC", "DNA 2": "TGGTGGCTACGACGGGATT"}, "B19": {"name": "CUGACCA (DNA:RNA)", "RNA": "B1 RNA with A26U, C27G, U28A, G29C, A30C, C31A", "DNA 1": "CAATCTGAATTCCGGTCTCCC", "DNA 2": "TGGTGGCTACGACGGGATT"}, "B20": {"name": "UCUAACC (DNA:RNA)", "RNA": "B1 RNA with C25U, A26C, C27U, U28A, G29A, A30C", "DNA 1": "CAATCTGAATTCCGGTCTCCC", "DNA 2": "TGGTGGCTACGACGGGATT"}},
  "note": "Positions count from the first letter of the chain named. The list shows a part of the results.",
  "data": [
    {"biological_target": "T1, RBFOX1 RRM RbFoxmut (Fox-RRM*) (Homo sapiens, UniProt Q9NWB1 109-208, R118D;E147R;N151S;E152T)", "T1 sequence": "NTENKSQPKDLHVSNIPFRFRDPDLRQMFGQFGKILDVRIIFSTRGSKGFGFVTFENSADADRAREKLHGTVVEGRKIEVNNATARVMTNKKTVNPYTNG", "assay": "EMSA; HiTS-Eq, 1 nM pool, 10 min; buffer printed only for the single-RNA assays: 10 mM Tris pH 7.5, 150 mM NaCl, 3.4 mM EDTA, 0.001% NP-40, 30 C", "details": "tags: His6 N-terminal (pET28a); label: 5' 32P", "summary_of_the_method": "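A pool of RNA with 7 randomized nucleotides, 5′-radiolabelled and with DNA-annealed flanks, was equilibrated at 1 nM for 10 min in 50 µL with purified RbFox RRM, wild type or mutant, across increasing protein concentrations. Free RNA was separated by 8% native PAGE, excised, reverse-transcribed, barcoded by PCR and sequenced. Relative association constants were obtained from read-count changes of each RNA species versus the control reaction and normalised to the cognate motif.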", "values": [
      {"binder": "B1", "binding signal": "0.102 KA relative to UGCAUGU"},
      {"binder": "B2", "binding signal": "0.0727 KA relative to UGCAUGU"},
      {"binder": "B3", "binding signal": "0.115 KA relative to UGCAUGU"},
      {"binder": "B4", "binding signal": "0.0765 KA relative to UGCAUGU"},
      {"binder": "B5", "binding signal": "0.128 KA relative to UGCAUGU"},
      {"binder": "B6", "binding signal": "0.0444 KA relative to UGCAUGU"},
      {"binder": "B7", "binding signal": "0.0803 KA relative to UGCAUGU"},
      {"binder": "B8", "binding signal": "0.111 KA relative to UGCAUGU"},
      {"binder": "B9", "binding signal": "0.107 KA relative to UGCAUGU"},
      {"binder": "B10", "binding signal": "0.207 KA relative to UGCAUGU"},
      {"binder": "B11", "binding signal": "0.0988 KA relative to UGCAUGU"},
      {"binder": "B12", "binding signal": "0.109 KA relative to UGCAUGU"},
      {"binder": "B13", "binding signal": "0.0456 KA relative to UGCAUGU"},
      {"binder": "B14", "binding signal": "0.116 KA relative to UGCAUGU"},
      {"binder": "B15", "binding signal": "0.0856 KA relative to UGCAUGU"},
      {"binder": "B16", "binding signal": "0.0778 KA relative to UGCAUGU"},
      {"binder": "B17", "binding signal": "0.105 KA relative to UGCAUGU"},
      {"binder": "B18", "binding signal": "0.107 KA relative to UGCAUGU"},
      {"binder": "B19", "binding signal": "0.0814 KA relative to UGCAUGU"},
      {"binder": "B20", "binding signal": "0.0782 KA relative to UGCAUGU"}
    ]}
  ]
}
